Laboratory results reported in US20230416360A1 (SIMCERE ZAIMING PHARMACEUTICAL, published 2023).

T1: human CD22-ECD-His (human, UniProt P20273 20-687)
T1 construct: Made in HEK293E, purified on nickel column; also called hCD22-ECD-His; recombinant human CD22-ECD His; not shown: His tag
T1 sequence: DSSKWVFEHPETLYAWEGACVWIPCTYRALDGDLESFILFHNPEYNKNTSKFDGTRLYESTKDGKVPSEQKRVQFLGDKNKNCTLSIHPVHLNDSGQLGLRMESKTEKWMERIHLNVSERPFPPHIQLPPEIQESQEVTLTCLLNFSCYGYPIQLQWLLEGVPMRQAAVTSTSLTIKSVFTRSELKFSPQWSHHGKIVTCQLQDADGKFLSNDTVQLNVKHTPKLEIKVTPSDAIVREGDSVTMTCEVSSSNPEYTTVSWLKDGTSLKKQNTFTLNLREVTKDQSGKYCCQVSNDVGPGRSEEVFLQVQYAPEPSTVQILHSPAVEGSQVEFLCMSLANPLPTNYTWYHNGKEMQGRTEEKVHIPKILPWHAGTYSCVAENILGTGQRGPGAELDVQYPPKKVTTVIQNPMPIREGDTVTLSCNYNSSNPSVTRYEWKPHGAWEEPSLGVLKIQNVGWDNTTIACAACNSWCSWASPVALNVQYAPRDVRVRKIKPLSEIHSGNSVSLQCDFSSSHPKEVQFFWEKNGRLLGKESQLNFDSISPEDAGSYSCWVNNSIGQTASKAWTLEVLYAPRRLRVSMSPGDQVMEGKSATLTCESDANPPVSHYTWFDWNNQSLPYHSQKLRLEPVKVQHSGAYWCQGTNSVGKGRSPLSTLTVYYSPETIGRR

T2: human CD22 (full length, on cells) (human, UniProt P20273 20-847)
T2 construct: Raji cells carry endogenous human CD22; also called CHO-K1-human CD22 2C4; CHO-K1-human CD22 1G5
T2 sequence: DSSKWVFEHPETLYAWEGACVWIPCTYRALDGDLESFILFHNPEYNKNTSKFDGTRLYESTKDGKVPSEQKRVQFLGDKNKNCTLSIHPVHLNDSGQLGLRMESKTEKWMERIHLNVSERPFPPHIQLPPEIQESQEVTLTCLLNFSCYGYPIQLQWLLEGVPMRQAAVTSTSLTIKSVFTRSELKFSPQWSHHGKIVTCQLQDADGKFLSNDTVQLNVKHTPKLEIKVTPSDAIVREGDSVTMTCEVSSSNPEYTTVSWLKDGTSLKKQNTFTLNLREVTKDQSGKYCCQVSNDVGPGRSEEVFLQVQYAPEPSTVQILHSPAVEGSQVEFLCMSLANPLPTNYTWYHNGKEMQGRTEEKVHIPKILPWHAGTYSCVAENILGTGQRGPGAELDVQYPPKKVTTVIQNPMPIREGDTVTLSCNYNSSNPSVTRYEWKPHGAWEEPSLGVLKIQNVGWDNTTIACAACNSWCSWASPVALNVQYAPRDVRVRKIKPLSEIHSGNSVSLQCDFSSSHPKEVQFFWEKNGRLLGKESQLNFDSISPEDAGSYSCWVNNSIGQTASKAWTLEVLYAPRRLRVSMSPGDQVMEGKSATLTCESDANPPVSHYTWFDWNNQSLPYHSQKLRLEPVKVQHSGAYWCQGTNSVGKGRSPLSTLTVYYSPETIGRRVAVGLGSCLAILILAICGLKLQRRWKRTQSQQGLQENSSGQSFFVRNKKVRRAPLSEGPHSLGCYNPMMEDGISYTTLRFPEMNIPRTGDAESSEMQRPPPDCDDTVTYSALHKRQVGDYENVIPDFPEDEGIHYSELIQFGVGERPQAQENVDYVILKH

T3: murine CD22-ECD-His (mouse, UniProt P35329 22-708)
T3 construct: extracellular domain; Bought; also called mouse CD22; murine CD22 protein
T3 sequence (looked up): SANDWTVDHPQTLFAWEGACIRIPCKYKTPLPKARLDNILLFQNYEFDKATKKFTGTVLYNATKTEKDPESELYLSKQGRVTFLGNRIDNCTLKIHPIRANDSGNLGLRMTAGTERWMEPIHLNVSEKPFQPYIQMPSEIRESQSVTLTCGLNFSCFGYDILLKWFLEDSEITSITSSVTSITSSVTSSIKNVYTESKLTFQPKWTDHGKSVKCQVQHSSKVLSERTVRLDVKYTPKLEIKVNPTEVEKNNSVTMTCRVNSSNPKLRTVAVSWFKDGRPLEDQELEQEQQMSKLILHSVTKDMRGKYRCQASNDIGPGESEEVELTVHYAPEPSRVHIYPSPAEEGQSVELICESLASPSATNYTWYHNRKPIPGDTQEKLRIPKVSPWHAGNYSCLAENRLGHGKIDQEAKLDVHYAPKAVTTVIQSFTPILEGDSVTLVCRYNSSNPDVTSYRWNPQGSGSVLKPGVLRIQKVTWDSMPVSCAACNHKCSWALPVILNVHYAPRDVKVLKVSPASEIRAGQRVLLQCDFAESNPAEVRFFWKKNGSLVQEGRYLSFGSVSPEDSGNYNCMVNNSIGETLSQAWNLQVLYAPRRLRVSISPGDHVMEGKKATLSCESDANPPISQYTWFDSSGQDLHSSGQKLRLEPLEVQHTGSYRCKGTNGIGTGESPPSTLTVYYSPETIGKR

B1: HA22 scFv-hFc (Fc fusion)
chain: EVQLVESGGGLVKPGGSLKLSCAASGFAFSIYDMSWVRQTPEKCLEWVAYISSGGGTTYYPDTVKGRFTISRDNAKNTLYLQMSSLKSEDTAMYYCARHSGYGTHWGVLFAYWGQGTLVTVSAGGGGSGGGGSGGGGSDIQMTQTTSSLSASLGDRVTISCRASQDISNYLNWYQQKPDGTVKLLIYYTSILHSGVPSRFSGSGSGTDYSLTISNLEQEDFATYFCQQGNTLPWTFGCGTKLEIK[human IgG1 Fc with changes cut from this listing]
B2: S002-NB151-2 VHH-Fc (Fc fusion)
chain: QVQLVESGGGLVQAGDSLRLSCAASGRTFSPSTMAWFRQAPGKERELVARIGWTYGDTYYVDSAKGRFTISMDNVKNTVYLQMNSLKPEDTAVYYCAALFRGGLSYNFSNRGTQVTVSS[human IgG1 Fc with changes cut from this listing]
notes: VHH cloned into vector BI3.4-huIgG1 (hinge and human IgG1 Fc), made in HEK293E; also called 5002-NB151-2
B3: S002-NB151-92 VHH-Fc (Fc fusion)
chain: QVQLVESGGGLVQSGGSLRLSCAASGFTFSDYTMNWVRQAPGKGLEWVSEISSGGHFKSNADSVKDRFTISRDNAKNTLYLQMNSLKPEDTAVYFCAKCPRPSVYCRDYESTSLYRGQGTQVTVSS[human IgG1 Fc with changes cut from this listing]
notes: VHH cloned into vector BI3.4-huIgG1 (hinge and human IgG1 Fc), made in HEK293E; also called 5002-NB151-92
B4: S002-NB150-159n VHH-Fc (Fc fusion)
chain: QVQLVESGGGLVQAGDSLRLACEASGRTATISTMGWFRQAPGKEREFVGRIDWSAESTYIVDSVKGRFIISRDNAKNAGYLQMNSLKPVDTAVYYCAAIVVRERSYKYWGQGTQVTVSS[human IgG1 Fc with changes cut from this listing]
notes: VHH cloned into vector BI3.4-huIgG1 (hinge and human IgG1 Fc), made in HEK293E; also called S002-NB150-15911
B5: S002-NB151-51 VHH-Fc (Fc fusion)
chain: QVQLVESGGGLVQAGGSLRLSCAASGITSDDYAIGWFRQAPGKEREGVSCMYSSDGSTYYADSVKGRFTISRDNAKNTVYLQMNSLRPEDTAVYHCAAGPWCFVTGVGREEWGQGTQVTVSS[human IgG1 Fc with changes cut from this listing]
notes: VHH cloned into vector BI3.4-huIgG1 (hinge and human IgG1 Fc), made in HEK293E; also called 5002-NB151-51
B6: S002-NB151-23 VHH-Fc (Fc fusion)
chain: QVQLVESGGGLVQAGGSLTVSCTNSGRTLSTSTIAWFRQKPGKDSEFVAAIRWSGGMGWYADSVKGRFTISRDNAENTVSLQMNTLQPEDTAVYFCAVSTVPYYGSIYTRVGDYPYWGQGTQVTVSS[human IgG1 Fc with changes cut from this listing]
notes: VHH cloned into vector BI3.4-huIgG1 (hinge and human IgG1 Fc), made in HEK293E; also called 5002-NB151-23
B7: S002-NB151-30 VHH-Fc (Fc fusion)
chain: QVQLVESGGGLVQAGGSLRLSCAASGRASGSGAMGWFRQAPGQERRFVAGIEWSSGGPVYADSVKGRFTLSRDNAKNTVHLQMNSLKPEDTAVYYCAAAPWVFSSPDDYMYWGQGTQVTVSS[human IgG1 Fc with changes cut from this listing]
notes: VHH cloned into vector BI3.4-huIgG1 (hinge and human IgG1 Fc), made in HEK293E; also called 5002-NB151-30
B8: S002-NB151-13 VHH-Fc (Fc fusion)
chain: QVQLVESGGGLVQAGDSLRLSCAASTRIFRSYVMGWFRQAPGKEREAVASIRWSNDTGTYADSVKGRFTISRDNAKNTVYLQMNSLKPEDTAVYSCAADSPPWGRTWYTGYDYWGQGTQVTVSS[human IgG1 Fc with changes cut from this listing]
notes: VHH cloned into vector BI3.4-huIgG1 (hinge and human IgG1 Fc), made in HEK293E

Assays:
[1] = target: T1, human CD22-ECD-His; experiment: ELISA, coated hCD22-ECD-His, antibody 0.001 nM
Protocol: (§1) The plate was sealed with plastic film and incubated overnight at 4° C., the plate was washed 2 times with PBS the next day, and then a blocking solution [PBS+2% (w/w) BSA] was added for blocking at room temperature for 2 hours. […] After incubation at 37° C. for 2 hours, the plate was washed 3 times with PBS. HRP (horseradish peroxidase)-labeled secondary antibody (purchased from Sigma, catalog number: A0170) was added, and incubated at 37° C. for 2 hours, and the plate was washed 5 times with PBS. TMB substrate was added at 50 μl/well, and incubated at room temperature for 30 minutes, then a stop solution (1.0 N HCl) was added at 50 μl/well.

[2] = target: T2, human CD22 (full length, on cells); experiment: FACS, Raji cells
Excerpt: The required cells were scale-up cultured in a T-75 cell culture flask to the logarithmic growth phase. For the adherent cell CHO-K1, the medium was aspirated, the cells were washed 2 times with PBS buffer, and then digested with trypsin. After the digestion was terminated, the cells were washed 2 times with PBS buffer. For suspension cell Raji, the medium supernatant was directly centrifuged and discarded, and the cell pellet was washed 2 times with PBS. […] The mixture was centrifuged and washed 3 times with PBS buffer, Alexa Flour 488-labeled secondary antibody (purchased from Invitrogen, catalog number: A-11013) was added at 50 μl/well, and incubated on ice for 1 hour. The obtained mixture was centrifuged and washed 5 times with PBS, and FACS (FACS Canto™, purchased from BD Company) was used for detection and result analysis. Data analysis was performed by software (CellQuest) to obtain the mean fluorescence density (MFI) of the cells. And then software (GraphPad Prism8) was used for analysis, data fitting, and EC50 value calculation.

[3] = target: T3, murine CD22-ECD-His; experiment: ELISA, coated mouse CD22, antibody 100 nM
Protocol: as §1

Row | Binder | OD450 [1] | EC50 [2] [nM] | Max MFI [2] | OD450 [3]
1 | B1 | 0.13 | 0.83 | 2520 | –
2 | B2 | 0.54 | 0.32 | 4200 | 0.08
3 | B3 | 0.17 | 0.68 | 3920 | 0.07
4 | B4 | 0.2 | 0.37 | 1870 | 0.07
5 | B5 | 0.18 | 0.4 | 2380 | 2.31
6 | B6 | 0.35 | 0.49 | 2200 | 0.14
7 | B7 | 0.22 | 0.8 | 2330 | 0.12
8 | B8 | 0.39 | 0.45 | 3960 | –
